# Source: the supplement of paper PMC6531468
# Some of the results follow. Read counts after selection give these values, which scatter widely. Each score is taken over the longer molecules that contain the sequence shown.
# Legend:
# Test in all cases: 6-mer SELEX enrichment z-score vs GST control; IMP3 is the RNA-binding protein IGF2BP3; higher = more enriched by binding
# IMP3 KH1-4 = settings: construct: KH1-4 (164-579); SELEX round: R4
# Description: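 SELEX-seq with GST-tagged IMP3 KH1-4 (Pro164-Lys579) and an N40 RNA pool, round 4. 6-mer z-score of sequence-tag enrichment normalised to the corresponding GST SELEX round; RNA k-mers written as DNA (T for U).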
# IMP3 RRM1-2 = settings: construct: RRM1-2 (1-163); SELEX round: R2
# Description: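 SELEX-seq with GST-tagged IMP3 RRM1-2 (Met1-Asn163) and an N40 RNA pool, round 2. 6-mer enrichment z-score normalised to GST SELEX. RNA written as DNA (T = U).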
# IMP3 full-length = IMP3 full-length (UniProt O00425); settings: construct: FL IMP3 (1-579); SELEX round: R4
# Description: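 SELEX-seq with GST-tagged full-length IMP3 and an N40 RNA pool, round 4. Each 6-mer is scored as an enrichment z-score of sequence tags containing it, normalised to the matching GST SELEX round. RNA written as DNA (T = U).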
# IMP3 KH1-2 = settings: construct: KH1-2 (164-376); SELEX round: R4
# Description: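 SELEX-seq with GST-tagged IMP3 KH1-2 (Pro164-Phe376) and an N40 RNA pool, round 4 (stringent 300/600 mM KCl washes). 6-mer z-score of sequence-tag enrichment normalised to the corresponding GST SELEX round; RNA k-mers written as DNA (T for U).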
# IMP3 KH3-4 = settings: construct: KH3-4 (377-579); SELEX round: R4
# Description: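 SELEX-seq with GST-tagged IMP3 KH3-4 (Pro377-Lys579) and an N40 RNA pool, round 4. 6-mer z-score of sequence-tag enrichment normalised to the corresponding GST SELEX round; RNA k-mers written as DNA (T for U).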
# Sequence of IMP3 RRM1-2 (chain, as listed by the source): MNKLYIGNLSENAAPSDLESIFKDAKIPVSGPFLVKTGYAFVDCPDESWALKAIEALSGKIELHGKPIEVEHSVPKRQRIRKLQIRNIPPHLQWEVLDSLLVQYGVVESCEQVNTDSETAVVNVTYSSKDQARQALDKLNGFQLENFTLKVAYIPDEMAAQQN
# Sequence of IMP3 KH3-4 (chain, as listed by the source): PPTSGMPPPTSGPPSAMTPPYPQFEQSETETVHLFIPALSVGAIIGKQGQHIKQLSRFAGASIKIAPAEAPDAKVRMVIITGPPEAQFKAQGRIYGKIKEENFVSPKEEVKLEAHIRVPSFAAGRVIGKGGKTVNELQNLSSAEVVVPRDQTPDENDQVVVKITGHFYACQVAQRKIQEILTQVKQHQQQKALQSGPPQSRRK
# Sequence of UniProt O00425 (O00425 whole entry): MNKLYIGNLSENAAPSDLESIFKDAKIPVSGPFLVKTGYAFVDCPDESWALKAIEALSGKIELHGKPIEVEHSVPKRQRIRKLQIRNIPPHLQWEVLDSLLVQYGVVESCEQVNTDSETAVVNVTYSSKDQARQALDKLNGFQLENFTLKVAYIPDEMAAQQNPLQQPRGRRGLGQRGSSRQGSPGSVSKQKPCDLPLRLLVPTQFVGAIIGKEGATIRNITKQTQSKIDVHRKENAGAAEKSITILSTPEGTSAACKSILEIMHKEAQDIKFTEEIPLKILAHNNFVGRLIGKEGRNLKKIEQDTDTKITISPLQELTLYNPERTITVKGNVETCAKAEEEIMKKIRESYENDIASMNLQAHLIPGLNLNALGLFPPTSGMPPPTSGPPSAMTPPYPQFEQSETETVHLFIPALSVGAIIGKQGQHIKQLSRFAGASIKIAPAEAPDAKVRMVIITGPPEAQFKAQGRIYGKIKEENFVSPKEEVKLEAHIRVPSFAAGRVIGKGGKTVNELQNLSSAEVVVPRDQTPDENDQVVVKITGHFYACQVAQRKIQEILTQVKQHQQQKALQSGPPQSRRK
# Sequence of IMP3 KH1-4 (chain, as listed by the source): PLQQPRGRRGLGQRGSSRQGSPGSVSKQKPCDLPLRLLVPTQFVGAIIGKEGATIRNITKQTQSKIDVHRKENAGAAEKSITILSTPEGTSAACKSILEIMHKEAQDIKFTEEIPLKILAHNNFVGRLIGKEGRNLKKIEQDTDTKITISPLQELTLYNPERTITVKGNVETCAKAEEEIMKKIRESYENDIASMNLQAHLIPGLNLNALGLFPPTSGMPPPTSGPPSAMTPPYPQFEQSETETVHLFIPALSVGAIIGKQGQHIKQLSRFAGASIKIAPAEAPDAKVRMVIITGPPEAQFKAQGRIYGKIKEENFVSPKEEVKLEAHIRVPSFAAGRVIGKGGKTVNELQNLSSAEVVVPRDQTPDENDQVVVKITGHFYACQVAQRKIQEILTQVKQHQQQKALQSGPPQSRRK
# Sequence of IMP3 KH1-2 (chain, as listed by the source): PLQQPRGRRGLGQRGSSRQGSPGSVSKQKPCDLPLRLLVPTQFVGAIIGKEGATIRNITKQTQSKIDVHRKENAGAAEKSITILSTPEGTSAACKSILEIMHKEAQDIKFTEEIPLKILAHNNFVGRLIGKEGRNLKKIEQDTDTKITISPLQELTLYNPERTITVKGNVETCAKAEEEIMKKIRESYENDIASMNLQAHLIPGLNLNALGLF
Sequence,6-mer SELEX enrichment z-score (IMP3 KH1-4),6-mer SELEX enrichment z-score (IMP3 RRM1-2),6-mer SELEX enrichment z-score (IMP3 full-length),6-mer SELEX enrichment z-score (IMP3 KH1-2),6-mer SELEX enrichment z-score (IMP3 KH3-4)
GATTTA,0.994,-0.302,-0.023,0.871,1.63
GAGGAC,0.545,-0.59,0.124,0.438,0.322
GAAGTG,0.069,-0.591,-0.388,0.005,0.21
CTGCAC,0.819,0.294,0.645,0.794,-0.046
CCAGCT,-0.381,-0.01,-0.114,-0.325,-0.497
GTTTCG,-0.507,0.446,-0.049,-0.361,-0.235
ATTCTG,0.599,0.283,0.244,0.58,0.462
ATGCCG,-0.15,-0.472,-0.249,-0.183,-0.436
TTTTGT,0.291,0.437,0.071,0.233,0.553
GCATTC,0.518,0.984,1.2,0.336,0.226
ATCTCT,0.258,0.352,0.085,0.216,0.153
CCCAAA,-3.46,-2.12,-3.31,-3.31,-3.95
CTATTT,1.12,0.297,0.27,1.08,1.33
ACTCGG,-0.833,0.056,0.076,-0.778,-0.758
TAGAGG,0.812,-0.04,0.345,0.693,1.01
AGGTGG,0.682,0.075,0.499,0.701,0.745
TTATGG,0.647,0.262,0.2,0.426,0.855
ATGTAC,0.398,-0.117,0.041,0.091,0.203
GGCAGA,0.602,0.12,1.29,0.46,0.69
GAATGT,0.239,-0.556,-0.521,-0.084,0.378
GTAGTG,-0.647,0.287,-0.409,-0.586,-0.441
TCAGGC,0.522,0.855,1.33,0.323,0.444
ACGCGA,-1.06,-0.819,-0.602,-1.01,-1.05
GTAATG,0.275,-0.37,-0.275,0.108,0.482
TCCTAA,-0.098,-0.468,-0.678,-0.127,-0.271

Sequence,6-mer SELEX enrichment z-score (IMP3 KH1-4),6-mer SELEX enrichment z-score (IMP3 RRM1-2),6-mer SELEX enrichment z-score (IMP3 full-length),6-mer SELEX enrichment z-score (IMP3 KH1-2),6-mer SELEX enrichment z-score (IMP3 KH3-4)
TTACTG,0.773,0.027,-0.045,0.74,0.67
AGAATC,0.106,-0.223,-0.092,-0.05,0.19
TGAAAA,-0.322,-2.23,-1.93,-0.433,0.767
TTTGGG,-0.174,0.459,0.059,-0.015,0.169
CCTGTA,-0.175,-0.304,-0.574,-0.253,-0.377
TGTTTT,0.194,0.408,0.02,0.223,0.461
GACTAT,0.453,-0.243,-0.288,0.443,0.737
AAGTGT,-0.557,-0.338,-0.679,-0.599,-0.354
CGCCCA,-1.19,-0.411,-0.682,-1,-1.62
ATCGAG,-2.09,-0.096,-0.826,-1.94,-1.8
CATCGC,0.856,0.614,1.34,0.61,-0.105
TTTTAC,0.721,0.112,0.03,0.817,1.09
AAAGCG,-3.16,-1.29,-2.35,-3.03,-2.6
ATCACG,0.33,1.63,1.38,0.069,-0.006
GAACAT,1.14,0.616,1.12,0.84,1.21
GCTCCC,0.121,-0.156,0.13,0.154,-0.546
CATCGT,0.154,0.523,0.728,-0.149,-0.145
GTGGAT,0.175,0.025,-0.121,0.07,0.244
TCACGA,-0.729,0.547,0.064,-0.762,-0.82
GTATGT,0.1,0.157,-0.144,0.052,0.231
GTTTGA,-0.271,-0.053,-0.439,-0.337,-0.105
GGTACT,-0.719,0.269,-0.208,-0.604,-0.537
AGGAAA,0.722,-1.36,-0.583,0.304,1.16
TGTGAC,0.288,-0.49,-0.379,0.001,0.022
CGCAAA,-0.596,-0.725,-0.332,-0.442,-0.713
